Paper PMC12677587
No constants are given. Whether binding was seen depends on the method and setting. Binding seen in cells or lysates may run through a third protein. Some entries that bind do so weakly or less than the wild type.

Protein sequences, listed by entry. Tags and fused reporters are not part of them.
UniProt Q06609: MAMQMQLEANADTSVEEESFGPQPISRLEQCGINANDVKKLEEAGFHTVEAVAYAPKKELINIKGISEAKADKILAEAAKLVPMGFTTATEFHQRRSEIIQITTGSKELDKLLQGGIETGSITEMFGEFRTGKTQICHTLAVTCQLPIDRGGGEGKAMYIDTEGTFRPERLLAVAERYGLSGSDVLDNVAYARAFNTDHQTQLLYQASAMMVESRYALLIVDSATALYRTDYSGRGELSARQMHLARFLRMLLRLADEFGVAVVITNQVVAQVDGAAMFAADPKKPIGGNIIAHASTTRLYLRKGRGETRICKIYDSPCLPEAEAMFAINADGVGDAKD

What was measured:
[1] = molecular target: endogenous RAD51 (human (endogenous in HEK293T)) (UniProt Q06609); experiment: co-IP; endogenous proteins in HEK293T; NETN lysate, antibodies overnight at 4 °C, protein A/G agarose beads; washes with 200 mM NaCl; also in cells depleted of RAD51, RFWD3 or PP4C
[2] = molecular target: T1, endogenous RFWD3 (human (endogenous in HEK293T)) (UniProt Q6PCD5); experiment: as above
T1 sequence: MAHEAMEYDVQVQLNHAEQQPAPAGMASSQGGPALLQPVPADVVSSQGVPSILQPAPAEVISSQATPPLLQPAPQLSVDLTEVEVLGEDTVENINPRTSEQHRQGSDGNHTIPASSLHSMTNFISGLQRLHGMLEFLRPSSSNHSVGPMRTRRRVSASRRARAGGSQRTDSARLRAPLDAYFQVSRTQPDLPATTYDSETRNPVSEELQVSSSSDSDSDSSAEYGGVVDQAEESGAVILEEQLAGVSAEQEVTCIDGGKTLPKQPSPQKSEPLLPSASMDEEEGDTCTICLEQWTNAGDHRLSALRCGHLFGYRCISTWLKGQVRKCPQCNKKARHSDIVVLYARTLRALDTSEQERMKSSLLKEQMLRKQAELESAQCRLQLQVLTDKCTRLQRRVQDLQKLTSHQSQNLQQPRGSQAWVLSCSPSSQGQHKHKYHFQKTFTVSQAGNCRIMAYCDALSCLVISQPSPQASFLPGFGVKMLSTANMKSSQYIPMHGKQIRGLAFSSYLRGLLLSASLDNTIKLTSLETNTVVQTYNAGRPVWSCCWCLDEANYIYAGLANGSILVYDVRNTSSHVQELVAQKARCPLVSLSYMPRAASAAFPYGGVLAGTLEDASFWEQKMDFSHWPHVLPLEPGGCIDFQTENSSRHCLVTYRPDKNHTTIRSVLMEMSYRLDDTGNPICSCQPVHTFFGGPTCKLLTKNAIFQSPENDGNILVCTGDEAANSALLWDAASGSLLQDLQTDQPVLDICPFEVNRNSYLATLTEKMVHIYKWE

[3] = molecular target: T1, endogenous RFWD3 (human (endogenous in HEK293T)); experiment: co-IP; endogenous UHRF1 and RFWD3 in HEK293T cells overexpressing RAD51 or RAD51^R254Q

Measured: binding

B1: endogenous UHRF1 (protein, UniProt Q96T88 1-793)
chain: MWIQVRTMDGRQTHTVDSLSRLTKVEELRRKIQELFHVEPGLQRLFYRGKQMEDGHTLFDYEVRLNDTIQLLVRQSLVLPHSTKERDSELSDTDSGCCLGQSESDKSSTHGEAAAETDSRPADEDMWDETELGLYKVNEYVDARDTNMGAWFEAQVVRVTRKAPSRDEPCSSTSRPALEEDVIYHVKYDDYPENGVVQMNSRDVRARARTIIKWQDLEVGQVVMLNYNPDNPKERGFWYDAEISRKRETRTARELYANVVLGDDSLNDCRIIFVDEVFKIERPGEGSPMVDNPMRRKSGPSCKHCKDDVNRLCRVCACHLCGGRQDPDKQLMCDECDMAFHIYCLDPPLSSVPSEDEWYCPECRNDASEVVLAGERLRESKKKAKMASATSSSQRDWGKGMACVGRTKECTIVPSNHYGPIPGIPVGTMWRFRVQVSESGVHRPHVAGIHGRSNDGAYSLVLAGGYEDDVDHGNFFTYTGSGGRDLSGNKRTAEQSCDQKLTNTNRALALNCFAPINDQEGAEAKDWRSGKPVRVVRNVKGGKNSKYAPAEGNRYDGIYKVVKYWPEKGKSGFLVWRYLLRRDDDEPGPWTKEGKDRIKKLGLTMQYPEGYLEALANREREKENSKREEEEQQEGGFASPRTGKGKWKRKSAGGGPSRAGSPRRTSKKTKVEPYSLTAQQSSLIREDKSNAKLWNEVLASLKDRPASGSPFQLFLSKVEETFQCICCQELVFRPITTVCQHNVCKDCLDRSFRAQVFSCPACRYDLGRSYAMQVNQPLQTVLNQLFPGYGNGR
binds: all assays above
